Test results from PubChem BioAssay AID686979 (National Center for Advancing Translational Sciences (NCATS), 2013).
Where “and” joins values, the source holds several entries; their conditions need not be identical. Identical values can stand only once. Among all 420,000 compounds or so, about 50,000 (12%) were called active. Inconclusive results, whose numbers are uncertain, are shown with a selection of clear calls. The call rests on the fitted dose curve; in most records, active means well fitted inhibition curve with a large enough effect; inconclusive means small, poorly fitted or top-dose-only effect; inactive means flat fitted curve, though single readings scatter. Where the call is inconclusive, the potency comes from a doubtful curve fit.

Experiment: qHTS for Inhibitors of human tyrosyl-DNA phosphodiesterase 1 (TDP1): qHTS in cells in presence of CPT; further: nearly all actives have a fitted effect of over 55% in size
Conditions: chicken DT40 Tdp1-/-;hTDP1 cells + 20 nM CPT, ATP luminescence, 48 h; activity change, negative = growth inhibition: at 46.2 µM (top of the series) unless noted
Description: Human tyrosyl-DNA phosphodiesterase 1 (TDP1) is a novel repair gene, and we propose to use it as a new target for anticancer drug development. TDP1 is not an essential protein, but under treatment with topoisomerase I poison (camptothecin: CPT), TDP1 works as a critical factor for cell survival. To directly identify novel TDP1 inhibitors active in a cellular environment, we have knocked-out the Tdp1 gene in chicken DT40 cells (Tdp1-/-) and generated a complemented counterpart cells that contains a stable transfection of the human TDP1 gene (Tdp1-/-;hTDP1 cells). For the primary screen, Tdp1-/-;hTDP1 cells will be exposed to small molecules in the presence or absence of CPT, and their growth kinetics will be evaluated after 48 hours by measuring ATP activity. […] The hit compounds will then be evaluated in the presence or absence of CPT using Tdp1-/- cells. […] In tertiary assays, biochemical gel-based assays will be used to assess whether the hit compounds specifically target TDP1. To this end, we have screened this cell line against the MLSMR in two primary screens. In one screen we add CPT and in the other we screen in the absence of CPT; this AID represents the screen where CPT was present. NIH Chemical Genomics Center [NCGC] NIH Molecular Libraries Probe Centers Network [MLPCN] MLPCN Grant: MH095538 Assay Submitter (PI): Yves Pommier, NCI
DT40-hTDP1 cells with 20 nM Camptothecin (add 20 microL of 1 mM CPT stock in 1 L of cell culture medium) were dispensed at 400 cells/5microL/well in tissue culture treated 1536-well white wall/solid bottom assay plates (Greiner Bio-One North America, NC, U.S.A.) using a Multidrop Combi 8 channel dispenser (Thermo Fisher, Waltham, MA, USA). 23 nL compounds and controls were transferred using the pin tool (Kalypsys, San Diego, CA, USA) to the assay plates. The assay plates were then incubated at 37 masculineC for a minimum 48 hr. Three microL of Cell Titer Glo solution was added to the plates and incubated at RT in dark for 30 min. Luminescence was read using ViewLux (Perkin Elmer) with 1 sec exposure slow speed, high gain and 2x binning.
On the % scale 0 is the no-effect control and ±100 the full control effect; potency means the concentration at half of the fitted maximal effect; tags describe the fitted curve by direction and shape.

| SMILES | Potency | activity change, negative = growth inhibition |
| --- | --- | --- |
| CC12CCC(C(=O)n3c1nc1ccccc13)C2(C)C (stereo not given) | active: 18.4 µM |  |
| Cc1ccc(OCC2Cn3c(nc4c3c(=O)n(C)c(=O)n4C)O2)cc1 (stereo not given) | inconclusive: 4.11 µM [inhibitor, partial curve] |  |
| COc1cccc(CCNc2ncnc3sc(C(=O)N4CCOCC4)c(C)c23)c1 |  | inactive: -7.96% |
| CCCN(CCC)Cc1c(C(=O)N/N=C/C(C)=C\c2ccco2)nnn1-c1nonc1N | active: 20.6 µM |  |
| CCn1cc(C(=O)NCCCOC(C)C)c(=O)c2cc(S(=O)(=O)N3CCC(C)CC3)ccc21 | inconclusive: 9.2 µM [inhibitor, partial curve] |  |
| Cc1ccc(-c2nnc(NC(=O)CCS(=O)(=O)c3ccc(F)cc3)o2)c(C)c1 |  | inactive: -6.43% |
| COc1cc(OC)cc(C(=O)Nc2ccccc2S(=O)(=O)N2CCCC2OC(C)=O)c1 (stereo not given) | inconclusive: 23.1 µM [inhibitor, single point] |  |
| CCCSC1=NC2(CCN(C(=O)NC3CCCCC3)CC2)N=C1c1ccc(OC)cc1 | active: 23.1 µM |  |
| COc1ccc(-c2sc3ccc(N4CCOCC4)cc3c2C#CC2(O)CCCCC2)cc1 | inconclusive: 23.1 µM [inhibitor, single point] |  |
| O=C(c1ccc(F)cc1)N(c1ccccn1)C1CCCCC1 |  | inactive: -22.3% |
| COC(C)(C)CCCC(C)C/C=C/C(C)=C/C(=O)O (stereo not given) |  | inactive: -5.71% |
| COc1cc(OC)c(OC)cc1/C=C/c1cc[n+](C)c2ccccc12 | active: 3.98 µM |  |
| CC1(C)c2ccccc2C(=O)c2ccccc21 |  | inactive: -29.7% |
| CN(C)CCNC(=O)c1cccc2ccc(-c3ccc(-c4ccccc4)cc3)nc12 | inconclusive: 18.4 µM [inhibitor, single point] |  |
| CSC(=NC#N)N1CCN(c2cccc(Cl)c2)CC1 |  | inactive: -4.8% |
| O=C(NCC(=O)N1CCCCC1)c1sc2ccccc2c1Cl |  | inactive: -7.67% |
| C(=C\c1ccnc2ccccc12)/c1ccc2ccccc2n1 | active: 7.08 µM |  |
| COC(=O)c1ccc(CSc2nc3ccccc3c(=O)n2Cc2ccco2)o1 | active: 23.1 µM |  |
| O=C(OCc1ccc([N+](=O)[O-])cc1)c1ccccn1 |  | inactive: 7.01% |
| O=C(Cn1ncc(Cl)c(Cl)c1=O)NC1CCS(=O)(=O)C1 (stereo not given) | active: 23.1 µM |  |
| O=C(Nc1ccc(F)cc1)c1nc(SCc2ccccc2F)ncc1Cl |  | inactive: -0.0074% |
| O=C(c1cc(-c2ccco2)on1)N1CCc2ccccc2C1 | inconclusive: 16.4 µM [inhibitor, partial curve] |  |
| COc1ccccc1CNC(=O)COC(=O)c1cc(-c2ccco2)nc2ccccc12 | inconclusive: 29.1 µM [inhibitor, single point] |  |
| Cc1cc(=O)oc2c1c(C)nn2-c1cccc(Cl)c1 | inconclusive: 7.31 µM [inhibitor, partial curve] |  |
| Cc1cc(NC(=O)CSCC(=O)Nc2cc(Cl)ccc2N2CCN(C)CC2)no1 |  | inactive: 1.58% |

| SMILES | Potency | activity change, negative = growth inhibition |
| --- | --- | --- |
| CCn1cc(CN2CCCC(CNC(=O)COc3ccccc3OC)C2)c(C)n1 (stereo not given) |  | inactive: 2.1% |
| CC1(C)C(=O)OC(c2cccn2-c2ccc([N+](=O)[O-])cc2)C(C)(C)C1=O (stereo not given) | active: 14.6 µM |  |
| COc1ccc(-c2noc(C3CCCN(C(=O)Nc4ccccc4)C3)n2)cc1 (stereo not given) | active: 25.9 µM |  |
| C=CCc1ccc(OCCOc2cccc3cccnc23)c(OC)c1 | inconclusive: 29.1 µM [inhibitor, single point] |  |
| COC(=O)CSc1nccc(C)n1 |  | inactive: 5.69% |
| C/C(=N\NC(=O)C(C)Sc1ccccc1)c1ccc([N+](=O)[O-])cc1 (stereo not given) | inconclusive: 20.6 µM [inhibitor, partial curve, poor fit] |  |
| O=C(CN1CCN(c2cccc(C(F)(F)F)c2)CC1)N(C1CCCC1)C1CCS(=O)(=O)C1 (stereo not given) | inconclusive: 20.6 µM [inhibitor, single point] |  |
| COc1cccc(NC(=O)C2C(c3ccccc3)C2(Cl)Cl)c1 (stereo not given) | active: 29.1 µM |  |
| O=C1c2ccccc2C(c2nnnn2Cc2ccccc2)N1Cc1cccnc1 (stereo not given) |  | inactive: 2.55% |
| Cc1nc(-c2cccc(F)c2)sc1CCNC(=O)Cc1ccc(F)cc1 | inconclusive: 20.6 µM [inhibitor, partial curve] |  |
| CCC(=O)NC1=C(NC(C)c2ccccc2)C(=O)c2ccccc2C1=O (stereo not given) | inconclusive: 35.5 µM [inhibitor, single point] |  |
| Cc1nc2ccccc2n1C(c1cccnc1)c1nc2ccccc2[nH]1 (stereo not given) |  | inactive: 13.2% |
| Cc1ccccc1S(=O)(=O)Cc1ccc(C(=O)NCc2ccc(F)cc2)o1 | inconclusive: 23.1 µM [inhibitor, single point] |  |
| Cc1ccccc1OCCC(=O)Nc1ccc(N2CCOCC2)cc1N1CCOCC1 |  | inactive: -2.74% |
| N#C/C(=C/c1ccc(O)cc1)c1nc(-c2ccc(-c3ccccc3)cc2)cs1 | inconclusive: 29.1 µM [inhibitor, single point] |  |
| O=C(Nc1ccccc1F)c1cc(-c2ccco2)nc2ccccc12 | inconclusive: 16.4 µM [inhibitor, single point] |  |
| Cc1cccnc1NC(=O)CSc1ccc2c(c1)OCCO2 |  | inactive: -1.97% |
| CC(C)(C)c1ccc(NC(=O)COC(=O)c2ccc3ncsc3c2)cc1 | inconclusive: 23.1 µM [inhibitor, single point] |  |
| CN(CCCNC(=O)CCC(=O)N1CCOc2ccccc21)Cc1ccccc1 |  | inactive: 5.07% |
| COC(=O)c1[nH]c2cccc(OC)c2c1NC(=O)CCN1CCC(C)CC1 | inconclusive: 8.2 µM [inhibitor, partial curve] |  |
| COc1cccc(CNC(=O)CN(c2cc(C)cc(C)c2)S(=O)(=O)c2c(C)noc2C)c1 | inconclusive: 29.1 µM [inhibitor, single point] |  |
| O=C(c1ccc(Cl)cc1)C1CCCN(Cc2cnn(-c3ccccc3)c2)C1 (stereo not given) | inconclusive: 29.1 µM [inhibitor, single point] |  |
| Cc1ccc(OCCn2c(CNc3ccccc3C)nc3ccccc32)cc1 | active: 23.1 µM |  |
| O=C1[C@H]2[C@@H](c3ccccc3)N[C@]3(CCCN(Cc4ccc(Br)cc4)C3=O)[C@H]2C(=O)N1Cc1ccccc1 | inconclusive: 23.1 µM [inhibitor, single point] |  |
| Cc1ccc(-c2cc(C(=O)N3N=C(C(F)F)CC3(O)C(F)F)c3ccccc3n2)cc1C (stereo not given) | active: 18.4 µM |  |

| SMILES | Potency | activity change, negative = growth inhibition |
| --- | --- | --- |
| COc1cc(C(=O)NC2CCCc3c2cnn3-c2ccccc2F)cc(OC)c1OC (stereo not given) | active: 10.3 µM |  |
| COc1ccc(-n2nc3c(N4CCC(C(=O)NCCc5ccccc5C)CC4)nnc(C)c3c2C)cc1 | inconclusive: 20.6 µM [inhibitor, single point] |  |
| O=C(Nc1ccc(C(=O)N2CCCCC2)cc1)C1CCC1 | inconclusive: 32.6 µM [inhibitor, partial curve] |  |
| COc1ccccc1CNC(=O)c1ccc(N(C)S(=O)(=O)c2ccc(C)cc2)cc1 |  | inconclusive: -14.9% [inhibitor] |
| O=C(O)CCNc1nc(-c2ccccc2)nc2ccccc12 |  | inactive: -1.57% |
| CCCNS(=O)(=O)c1ccc(NC(=O)c2ccccn2)cc1 | inconclusive: 29.1 µM [inhibitor, single point] |  |
| S=C(N/N=C/c1ccccc1)N1CCOCC1 | inconclusive: 5.17 µM [inhibitor, partial curve] |  |
| Cc1ccc(C)c(N=Nc2ccc(O)c3ncccc23)c1 | active: 2.06 µM |  |
| Cc1cc(NC(=O)c2cnn(-c3ccccc3)c2-n2cccc2)ccc1Br | active: 18.4 µM |  |
| CCOC(=O)C(C(=O)OCC)C(C)(C)/C(C)=N\Nc1ccc([N+](=O)[O-])cc1[N+](=O)[O-] | inconclusive: 16.4 µM [inhibitor, single point] |  |
| Cn1c(=O)c2c(ncn2CC(=O)Nc2cc(S(=O)(=O)N3CCCCC3)ccc2Cl)n(C)c1=O | inconclusive: 29.1 µM [inhibitor, single point] |  |
| O=C1c2ccccc2CCC12OC2c1ccc([N+](=O)[O-])cc1 (stereo not given) | inconclusive: 14.6 µM [inhibitor, single point] |  |
| COc1ccc(OCc2csc(N)n2)cc1 |  | inactive: 14.9% |
| CC(C)NC(=O)NC(=O)COc1ncnc2sccc12 | inconclusive: 29.1 µM [inhibitor, single point] |  |
| Cc1noc(COc2ccc(OCc3nc(C)no3)cc2)n1 |  | inactive: -20.3% |
| COc1cccc(CNC(=O)CN(c2ccc(C)cc2)S(=O)(=O)N(C)C)c1OC |  | inactive: -14.1% |
| CCc1cccc(NC(=O)Cn2c(=O)n(CC3CCC(C(=O)NC)CC3)c(=O)c3sccc32)c1 (stereo not given) | inconclusive: 16.4 µM [inhibitor, single point] |  |
| O=C(O[C@H]1[C@H](Cc2ccccc2)NS(=O)(=O)[C@H]2C[C@@H]3C=C[C@]12O3)c1ccc([N+](=O)[O-])cc1 | inconclusive: 20 µM [inhibitor, single point] and inconclusive: 29.1 µM [inhibitor, single point] |  |
| Cc1ccc(N/C=C(/C#N)c2ccsc2)cc1 |  | inactive: -2.47% |
| CSc1nsc(SC)c1NC(=O)OCc1ccccc1 | inconclusive: 17.8 µM [inhibitor, partial curve, poor fit] |  |
| O=C(NCc1nnnn1-c1ccc(Cl)cc1)C(=O)c1c[nH]c2ccccc12 |  | inactive: -1.66% |
| COc1cccc(-c2nc3c(C#N)c[nH]n3c2NC2CCCCC2)c1 | inconclusive: 16.4 µM [inhibitor, single point] |  |
| Cc1nnc2ccc(-c3ccc(NC(=O)c4ccco4)cc3)nn12 | inconclusive: 14.6 µM [inhibitor, partial curve, poor fit] |  |
| COc1ccc(-c2csc3ncnc(Nc4ccc(OC)cc4OC)c23)cc1 | active: 4.11 µM |  |
| O=C(c1ccc(CNc2c(NC3CCCCC3)c(=O)c2=O)cc1)N1CCc2ccccc21 |  | inactive: 0.759% |
